Experimental data published in the supplement of paper PMC3724861.
The other results are listed elsewhere or left out.

The sequences below were run on T1, Caupolican (Caup) homeodomain DNA-binding domain (assay: PBM E-score (8-mer, recovered from the published 9-mer minima) (E-score (dimensionless, -0.5 to 0.5)); Drosophila protein; higher = stronger relative binding preference, active = 0.31 or more).
T1 sequence: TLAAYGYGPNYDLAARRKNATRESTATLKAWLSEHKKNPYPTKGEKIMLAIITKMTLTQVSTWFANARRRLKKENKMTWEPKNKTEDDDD
In short: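 An enrichment score, with higher meaning stronger, expresses relative binding preference for each short DNA word. The protein used was Caup's homeodomain DNA-binding domain (residues 214-303), produced by in vitro transcription and translation and tested at 100 nM on custom-designed protein binding microarrays. The 8-mer values were recovered from published 9-mer scores, each equal to the lower of its two constituent 8-mer scores.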
In the case of CGACGTAG, the “PBM E-score” value is reported as inactive: -0.0808. For GCTTATCC, the “PBM E-score” value was inactive: -0.00552. In the case of CAATTCGA, the “PBM E-score” value is reported as inactive: 0.042. ATGTACAG was tested, and the “PBM E-score” value was active: 0.343. CTTCAAAG was tested, and the “PBM E-score” value was inactive: 0.0151. In the case of ATCAGGAT, the “PBM E-score” value is reported as inactive: 0.0277. With CAGTCCAC the “PBM E-score” value was inactive: -0.103. For CCAGGTAG, the “PBM E-score” value was inactive: -0.0444. With ACCCTAGA the “PBM E-score” value was inactive: -0.0173. For CAGTTTTA, the “PBM E-score” value was inactive: -0.0317. With ACTAAAGA the “PBM E-score” value was inactive: -0.00917. With GACGCTGC the “PBM E-score” value was inactive: -0.148. GCCAATGA was tested, and the “PBM E-score” value was inactive: -0.0694. In the case of AGTTACCC, the “PBM E-score” value is reported as inactive: 0.0727. CTACCAAC was tested, and the “PBM E-score” value was inactive: 0.174. With CTTACCGC the “PBM E-score” value was inactive: -0.0625. With AGACGCAG the “PBM E-score” value was inactive: -0.0515. With GGACCGCA the “PBM E-score” value was inactive: -0.188. In the case of ACTCAACA, the “PBM E-score” value is reported as no less than 0.178. In the case of CGTGAGGA, the “PBM E-score” value is reported as inactive: -0.0619. In the case of CTACTTCA, the “PBM E-score” value is reported as inactive: -0.0221. In the case of CGCACCAC, the “PBM E-score” value is reported as inactive: -0.0764. With ATAAGTGG the “PBM E-score” value was inactive: 0.0344. With AACGTGCG the “PBM E-score” value was inactive: -0.0165. In the case of TCGCTGAA, the “PBM E-score” value is reported as inactive: -0.018. In the case of GGGTATAC, the “PBM E-score” value is reported as inactive: 0.0801. CACCTTCG was tested, and the “PBM E-score” value was inactive: -0.0818. With CGAATTAG the “PBM E-score” value was inactive: 0.106. In the case of GCGGACTA, the “PBM E-score” value is reported as inactive: 2e-05. With ATACATTG the “PBM E-score” value was inactive: 0.261. In the case of ATGTAGGC, the “PBM E-score” value is reported as inactive: 0.12. In the case of GGGCGGTA, the “PBM E-score” value is reported as inactive: -0.243. For AGGCGGAA, the “PBM E-score” value was inactive: -0.0545. For TCGCACAA, the “PBM E-score” value was inactive: 0.03. With AGGCAACA the “PBM E-score” value was inactive: 0.0395. With ACTGACCA the “PBM E-score” value was inactive: -0.0989. For ATGGCGGC, the “PBM E-score” value was inactive: -0.15. With AAACCTAT the “PBM E-score” value was inactive: 0.0971. With TAATCAAA the “PBM E-score” value was inactive: 0.176. For GCAATTAC, the “PBM E-score” value was inactive: -0.0243. For CAATAAGG, the “PBM E-score” value was inactive: -0.0326. With CAAGTGCA the “PBM E-score” value was inactive: 0.145. In the case of AATTACAC, the “PBM E-score” value is reported as inactive: 0.299. In the case of ATCGTATA, the “PBM E-score” value is reported as inactive: 0.17. ATTATAGG was tested, and the “PBM E-score” value was inactive: 0.0888. With AAACCAAC the “PBM E-score” value was inactive: 0.099. In the case of GCAGATCA, the “PBM E-score” value is reported as inactive: 0.0121. With CCTCTACG the “PBM E-score” value was inactive: -0.0999. In the case of TCCTGACA, the “PBM E-score” value is reported as no less than 0.218. CTATATGA was tested, and the “PBM E-score” value was inactive: 0.0936. In the case of CCTCCGGC, the “PBM E-score” value is reported as inactive: -0.25. In the case of ACCAGGAT, the “PBM E-score” value is reported as inactive: 0.0682. ACACCAAT was tested, and the “PBM E-score” value was inactive: 0.189. In the case of CGGTGTGC, the “PBM E-score” value is reported as inactive: -0.147. For ACGGCTTG, the “PBM E-score” value was inactive: -0.133. ATTCCTAG was tested, and the “PBM E-score” value was inactive: -0.0259. CACGCCGC was tested, and the “PBM E-score” value was inactive: -0.181. In the case of CGCCGACA, the “PBM E-score” value is reported as inactive: -0.00338. With AGCGTGTC the “PBM E-score” value was inactive: 0.231. With ACTTCTAC the “PBM E-score” value was inactive: 0.113. For TATCTGGA, the “PBM E-score” value was inactive: -0.0362. In the case of GGTTGAGA, the “PBM E-score” value is reported as inactive: -0.132. TAAAAAAA was tested, and the “PBM E-score” value was inactive: 0.0221. With ACTGTACA the “PBM E-score” value was inactive: 0.257. In the case of AACGTGAG, the “PBM E-score” value is reported as inactive: -0.0335. In the case of AAGGCAGG, the “PBM E-score” value is reported as inactive: -0.12. CGGACCCA was tested, and the “PBM E-score” value was inactive: -0.12. In the case of CAGAACTG, the “PBM E-score” value is reported as inactive: 0.0475. With AATATTCT the “PBM E-score” value was inactive: 0.136. With AGCGGTAT the “PBM E-score” value was no less than 0.0704. CTATATAA was tested, and the “PBM E-score” value was inactive: 0.141. With CAGCCAAC the “PBM E-score” value was inactive: -0.0706. With AGGTCAAT the “PBM E-score” value was inactive: 0.0587. In the case of GGCAGCTA, the “PBM E-score” value is reported as inactive: -0.136. AGAGCGTC was tested, and the “PBM E-score” value was inactive: -0.0587. For GTGCATCA, the “PBM E-score” value was inactive: 0.088. With CGGATCGA the “PBM E-score” value was inactive: -0.118. With ACACGGTG the “PBM E-score” value was inactive: 0.307. In the case of GGCGCTAC, the “PBM E-score” value is reported as inactive: -0.16. In the case of AAAGGCGA, the “PBM E-score” value is reported as inactive: -0.0088. ACGACCAT was tested, and the “PBM E-score” value was inactive: 0.0458. CCACGGTC was tested, and the “PBM E-score” value was inactive: -0.131. For ATTCAGGC, the “PBM E-score” value was inactive: -0.0455. CCAACCCA was tested, and the “PBM E-score” value was inactive: -0.128. ACAAGCGT was tested, and the “PBM E-score” value was inactive: 0.265. For ATGATAAG, the “PBM E-score” value was inactive: 0.126. For AATAAGGT, the “PBM E-score” value was inactive: 0.0179. ATCTAGGA was tested, and the “PBM E-score” value was inactive: -0.0135. In the case of CATGTTGC, the “PBM E-score” value is reported as inactive: 0.279. CCAGTGCG was tested, and the “PBM E-score” value was inactive: -0.16. With ATTCCGCC the “PBM E-score” value was inactive: -0.117. With CAAACAGA the “PBM E-score” value was inactive: 0.115. For CGGCTCCA, the “PBM E-score” value was no less than -0.097. For ACCAATTC, the “PBM E-score” value was inactive: 0.101. CGATGACC was tested, and the “PBM E-score” value was inactive: -0.0166. For CGTCCTGC, the “PBM E-score” value was inactive: -0.113. With ACAGCGAT the “PBM E-score” value was inactive: 0.0318. With AGTCGCGC the “PBM E-score” value was inactive: -0.119. In the case of TATACGCA, the “PBM E-score” value is reported as inactive: 0.0803. CCACTCGG was tested, and the “PBM E-score” value was inactive: -0.158. For CCGATGAC, the “PBM E-score” value was inactive: -0.0299. For ATCTTTAG, the “PBM E-score” value was inactive: -0.00571. For ATGAATCC, the “PBM E-score” value was inactive: 0.104. CTGATGCA was tested, and the “PBM E-score” value was inactive: 0.0187. For ATGGTGAA, the “PBM E-score” value was inactive: -0.0304. With GCATTCCA the “PBM E-score” value was inactive: -0.0726. With AGCGCAGA the “PBM E-score” value was inactive: -0.1. For CGTACGTA, the “PBM E-score” value was inactive: 0.0739. With CGCGAAAC the “PBM E-score” value was inactive: -0.0398. For GATCCGGC, the “PBM E-score” value was inactive: -0.107. For AAACTATT, the “PBM E-score” value was inactive: 0.0958. With ACGGGCCT the “PBM E-score” value was inactive: -0.195.
